The whole screen tested about 420,000 compounds, of which about 50,000 (12%) were called active. Inconclusive means that the source gave no clear call. Such entries were picked first, then a sample of the others. Calls come from the whole dose curve; as a rule, active = well fitted inhibition curve with a large enough effect; inconclusive = small, poorly fitted or top-dose-only effect; inactive = flat fitted curve, though single readings scatter. No potency is given beside an inconclusive call; the fits are too rough.
Assay: qHTS for Inhibitors of human tyrosyl-DNA phosphodiesterase 1 (TDP1): qHTS in cells in presence of CPT; note: nearly all actives have a fitted effect of over 55% in size
Settings: chicken DT40 Tdp1-/-;hTDP1 cells + 20 nM CPT, ATP luminescence, 48 h; activity change, negative = growth inhibition: at 46.2 µM (top of the series) unless noted
Outline: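 Chicken DT40 Tdp1-/- cells complemented with human TDP1, 400 cells/well, exposed to compounds plus 20 nM camptothecin for at least 48 h at 37 C; viability read as ATP content by CellTiter-Glo luminescence.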
% is set by controls: 0 for no effect and ±100 for the full control effect; potency is the fitted concentration of half-maximal effect; tags give direction and shape of the fitted curve.

Row | Compound | Potency | activity change, negative = growth inhibition
1 | Cc1nnc(N2CCC(C(=O)N3CCCCCC3)CC2)c2nn(-c3ccc(Cl)cc3)c(C)c12 | active: 18.4 µM | 
2 | CCC1CN(C(=O)N2CCC(C(=O)NCc3ccc(N(C)C)cc3)CC2)c2ccccc2O1 (centres undefined) | active: 16.4 µM | 
3 | c1ccc2c(c1)Cc1cc3ccccc3nc1-2 | inconclusive [inhibitor, single point] | 
4 | Cc1ccc(NS(=O)(=O)c2c(C(=O)N3CCCCCC3)c(C)n(C)c2C)cc1C | inconclusive [inhibitor, single point] | 
5 | CCOC(=O)c1ccc(N2CCN(c3cc(C)ccc3C)CC2)c(NC(=O)Nc2ccc(CC)cc2)c1 | inconclusive [inhibitor, single point] | 
6 | NC(=O)C1(c2ccccc2)CCCN1C(=O)c1ccc(Br)cc1 (centres undefined) |  | inactive: -23.3%
7 | O=C(Nc1ccccc1)Nc1cccc(Cl)c1Cl | inconclusive [inhibitor, single point] | 
8 | CC1(C)CC(=O)C2=C(C1)N1C(=C(C#N)C2c2ccccc2Cl)N=C(N)c2ccccc21 (centres undefined) | inconclusive [inhibitor, single point] | 
9 | CCOC(=O)c1ccccc1NC(=O)COc1coc(CN2CCc3ccccc32)cc1=O | inconclusive [inhibitor, single point] | 
10 | CN(Cc1ccc(F)cc1)C(=O)c1cc(COc2ccc(-n3cncn3)cc2)on1 | active: 23.1 µM | 
11 | CCN(CC(=O)Nc1ccccc1C(F)(F)F)C(=O)CCc1nc2ccccc2c(=O)[nH]1 |  | inactive: -21.7%
12 | Cc1cccc(-c2cc3nc(-c4ccccc4)cc(=O)n3[nH]2)c1 | active: 23.1 µM | 
13 | COc1ccc(Cl)cc1/C=N/NC(=O)c1c(-c2ccccc2)noc1C |  | inactive: -5.59%
14 | CCCNc1nc(C)cc(-c2cc(-c3ccccc3)on2)n1 | inconclusive [inhibitor, single point] | 
15 | COc1cccc(Nc2ccc3cc(S(=O)(=O)N4CCC(C)CC4)ccc3n2)c1 | inconclusive [inhibitor, single point] | 
16 | Cc1ccc(C(=O)Nc2ccc(F)c(S(=O)(=O)N3CCOCC3)c2)s1 | inconclusive [inhibitor, single point] | 
17 | COc1ccc(CCC(=O)NNC(=S)NCc2ccc(F)cc2)cc1 |  | inactive: -29.7%
18 | Cc1ccc(CNC(=O)CCn2cc(-c3ccc(C)cc3)nc2CCN)cc1 | inconclusive [inhibitor, single point] | 
19 | COc1ccc(-c2oc3c(c2C(=O)OCCCO)C(OCCCCCO)CCC3)cc1 (centres undefined) | inconclusive [inhibitor, single point] | 
20 | Cc1c(C(=O)NCc2ccccc2Cl)sc2nc3n(c(=O)c12)CCCCC3 | inconclusive [inhibitor, single point] | 
21 | CC(C)C[C@H]1CN(CCCC[C@H]2CNC(=O)C(=O)N2CCC2CCCCC2)C(=O)C(=O)N1CCc1ccccc1 | inconclusive [inhibitor, single point] | 
22 | CC(=O)c1cccc(NC(=O)C2CCN(C(=O)c3cnn(-c4ccccc4)c3-n3cccc3)CC2)c1 | inconclusive [inhibitor, single point] | 
23 | Cc1c(C(=O)N(C)Cc2ccc(F)cc2)sc(=O)n1Cc1ccc(Cl)c(Cl)c1 | inconclusive [inhibitor, single point] | 

Row | Compound | Potency | activity change, negative = growth inhibition
24 | COC(=O)CN(Cc1ccco1)S(=O)(=O)c1ccccc1 |  | inactive: -0.259%
25 | CN(C(=O)C1CCN(c2ncnc3c2nc2n3CCCCC2)CC1)C1CCCCC1 | active: 20.6 µM | 
26 | CCn1cc2nc(SCC(=O)Nc3ccc(OC)c(OC)c3)n(Cc3ccc(Cl)cc3)c(=O)c2n1 | active: 18.4 µM | 
27 | CC1(C)CN2C(=O)c3ccccc3C2(C)S1 (centres undefined) |  | inactive: 19.1%
28 | O=C(Nc1ccc(Nc2ccccc2)cc1)c1ccc(Cl)cc1[N+](=O)[O-] | active: 5.8 µM | 
29 | Cc1ccccc1-c1nc2scc(CCNS(=O)(=O)c3ccccc3)n2n1 | inconclusive [inhibitor, single point] | 
30 | O=C(NCCC1=CCCCC1)C(=O)NCC1OCCCN1S(=O)(=O)c1cc(F)ccc1F (centres undefined) | inconclusive [inhibitor, single point] | 
31 | Cc1ccc(-c2noc(CN(C(=O)Cc3ccccc3)C(C)C)n2)cc1 | inconclusive [inhibitor, single point] | 
32 | Cc1cc(C)nc(SC2CC(=O)N(c3ccc(C)c(C)c3)C2=O)n1 (centres undefined) | inconclusive [inhibitor, single point] | 
33 | O=C(O)c1ccc2nc3c(nc2c1)-c1ccccc1C3=O | inconclusive [inhibitor, single point] | 
34 | COc1ccc(-c2cc(-c3ccc(F)cc3)nc3c2COc2ccc(F)cc2-3)cc1 | inconclusive [inhibitor, partial curve] | 
35 | O=C(c1ccccc1)c1ccc(OC(=O)C2CCCCC2)cc1 |  | inactive: -0.0643%
36 | CC(=O)/C(=C/Nc1ccc(Oc2ccccc2)cc1)c1ccccc1 | inconclusive [inhibitor, single point] | 
37 | O=C(N/C(=C\c1cccc([N+](=O)[O-])c1)C(=O)N1CCOCC1)c1ccco1 |  | inactive: 0.923%
38 | CCN(CC(=O)Nc1c(F)cccc1F)C(=O)c1cc2c(cc1Cl)N1CCCCCC1=NS2(=O)=O |  | inactive: -0.83%
39 | COc1ccc(NC(C)=O)cc1C |  | inactive: 0.37%
40 | Cc1cccc(S(=O)(=O)N2CN(Cc3ccco3)c3nc4ccccc4nc32)c1 | active: 18.4 µM | 
41 | COc1ccc(CCN2C(=O)c3ccccc3C2c2nnnn2Cc2ccccc2)cc1OC (centres undefined) | inconclusive [inhibitor, single point] | 
42 | C[C@H]1CN([C@@H](C)CO)C(=O)c2cc(NC(=O)NC3CCCCC3)ccc2O[C@H]1CN(C)C(=O)Nc1ccc(C(F)(F)F)cc1 | inconclusive [inhibitor, single point] | 
43 | BrC(=C\c1ccccc1)/C=N/Nc1nc2ccccc2[nH]1 | active: 18.4 µM | 
44 | COc1ccc(C(=O)c2oc3nc(C)cc(C)c3c2N)cc1 | inconclusive [inhibitor, single point] | 
45 | O=C1CN(C(=O)COc2ccc(Cl)cc2)C(c2ccccc2)c2cc(Br)ccc2N1 (centres undefined) | inconclusive [inhibitor, single point] | 
46 | COC(=O)C(Cc1c[nH]c2ccccc12)NC(=O)c1cccc(S(=O)(=O)N2CCCCC2)c1 (centres undefined) |  | inactive: -6.82%

Row | Compound | Potency | activity change, negative = growth inhibition
47 | COc1ccc(Cc2nnc(SCC(=O)N(c3ccccc3)C(C)C)n(N)c2=O)cc1 | inconclusive [inhibitor, single point] | 
48 | CCN(CC)C(=O)C1(P(=O)(c2ccccc2)c2ccccc2)CCC1 | inconclusive [inhibitor, single point] | 
49 | CC(C)(C)OC(=O)N1CCC(c2c(C(=O)Nc3ccc4c(c3)OCCO4)cnn2-c2ccc(Cl)cc2)CC1 | inconclusive [inhibitor, single point] | 
50 | CCN(CC)C(=O)/C(=C\c1ccc(Br)cc1)NC(=O)c1ccccc1OC | inconclusive [inhibitor, single point] | 
51 | COc1cccc(-c2oc3c(c2C(=O)OCCN2CCCCC2)C(O)CCC3)c1 (centres undefined) | inconclusive [inhibitor, single point] | 
52 | O=C(NCc1ccc2c(c1)OCO2)c1cc(-c2ccncc2)nc2ccccc12 | active: 16.4 µM | 
53 | CCn1cc(CNCc2cn[nH]c2-c2cc3ccccc3o2)cn1 | active: 18.4 µM | 
54 | CCCCCOC(=O)c1[nH]c2c(c1C)C(=O)C(C(=O)OC)C(C)C2 (centres undefined) | active: 9.2 µM | 
55 | CC(C)NC(=O)C1(C)CCCN1Cc1ccccc1C#N (centres undefined) | inconclusive [inhibitor, single point] | 
56 | COc1ccc(-c2cn[nH]c2-c2ccc(OCc3ccccc3)cc2O)cc1OC | active: 16.4 µM | 
57 | O=C(CSc1nc2ccc(Nc3nc(N4CCOCC4)nc(N4CCOCC4)n3)cc2s1)Nc1ccccc1F | active: 6.51 µM | 
58 | C#CC(C)(CC)NC(=O)Cn1nnc(-c2cccc(C(F)(F)F)c2)n1 (centres undefined) | inconclusive [inhibitor, full curve, poor fit] | 
59 | COc1ccccc1C(=O)COC(=O)c1cc(S(=O)(=O)N2CCCCC2)ccc1N1CCOCC1 | inconclusive [inhibitor, single point] | 
60 | CCOc1ccccc1C(=O)NC(C(=O)NCCc1ccccn1)C(C)C (centres undefined) | inconclusive [inhibitor, single point] | 
61 | Cc1cccc(NC(=O)c2cnc3scc(C)n3c2=O)c1 | inconclusive [inhibitor, partial curve] | 
62 | CC(C)(C#N)NC(=O)C(=O)c1c(-c2ccccc2)cc2ccccn12 |  | inactive: 4.67%
63 | C(=C1c2ccccc2Oc2ccccc21)c1ccccc1 | inconclusive [inhibitor, single point] | 
64 | COc1ccc(N2C(=O)CC(Sc3n[nH]c(-c4ccc(C)cc4)n3)C2=O)cc1 (centres undefined) | active: 2.91 µM | 
65 | CCn1cc(CCC(=O)NCc2ccc(C)cc2)c2ccccc21 | inconclusive [inhibitor, single point] | 
66 | COc1ccc(CCNC(=O)C(CC(C)C)N2Cc3ccccc3C2=O)c(OC)c1OC (centres undefined) | inconclusive [inhibitor, single point] | 
67 | CN(c1ccccc1)c1ncccn1 |  | inactive: -8.62%
68 | COCC1CCN(C(=O)c2ccc3oc(CCCc4ccccc4)nc3c2)C1 (centres undefined) | inconclusive [inhibitor, single point] | 
69 | COc1cc2ccccc2cc1C(=O)NC(=S)Nc1cccc(C(=O)O)c1C |  | inactive: 0.145%

— PubChem BioAssay AID686979 (National Center for Advancing Translational Sciences (NCATS), 2013)
